Binding signal data for 23 sequences are collected here from publication PMC7819943, “Rice protein-binding microarrays: a tool to detect cis-acting elements near promoter regions in rice”.

Some of the results follow.

This assay has as its target T1, OsWOX13 (Oryza sativa, UniProt Q5QMM3 1-267).
T1 sequence: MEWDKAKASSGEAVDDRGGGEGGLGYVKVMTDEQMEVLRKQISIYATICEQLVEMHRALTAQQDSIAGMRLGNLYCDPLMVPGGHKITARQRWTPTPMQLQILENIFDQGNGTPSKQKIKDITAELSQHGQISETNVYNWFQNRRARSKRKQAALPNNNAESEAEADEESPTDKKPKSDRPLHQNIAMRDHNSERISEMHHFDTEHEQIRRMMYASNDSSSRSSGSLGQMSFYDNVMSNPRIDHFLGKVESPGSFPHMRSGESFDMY
In words: protein-binding microarray (RPBM); PBS, 2% BSA, 51.3 ng/ul salmon testes DNA, 50 uM zinc acetate, 200 nM TF, 25 C, 1 h; high values mean tight binding. The following applies: protein: recombinant; tags: N-terminal polyhistidine and DsRed monomer fusion (pET32a); label: CyDye5-dUTP incorporated in the synthesized complementary strand; 3' TTTTT single-stranded linker to array surface; dsDNA, one strand shown. The essentials: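 In PBS with 2% BSA, salmon testes DNA and 50 µM zinc acetate, 200 nM protein was incubated on a custom Agilent array at 25 °C for 1 h and then washed off. The array had been made double-stranded by primer extension with Cy5-dUTP and blocked with 2% BSA. The proteins were transcription factors fused N-terminally to polyhistidine and DsRed, expressed in E. coli BL21-CodonPlus and purified on Ni–NTA. The binding signal is per-feature fluorescence intensity (arbitrary units) from an Axon 4000B scanner.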
Consider “AAACCGAGGTAAATTATGTCAATCATAATATTGGAACTAACGGAGTCACCTAGTGCAG”, for which the binding signal is 22500 fluorescence intensity (a.u.).

Take “CATACAGTGGTAAATTGGACTTCAACCATGCGCCCTGTTGCGGAGTCACCTAGTGCAG”: the binding signal was 3380 fluorescence intensity (a.u.).

With “GTAAATTTGTGCTCAAAATGTACAGGAGTAGGGTTTTATGCGGAGTCACCTAGTGCAG”, the binding signal is 11600 fluorescence intensity (a.u.).

With “AACAAATTAACTAGACTTTTCTCATCATCATCATCATCAGCGGAGTCACCTAGTGCAG”, the binding signal is 20400 fluorescence intensity (a.u.).

In the case of “AAACTAATTATACAGATTACGTGTAAATTGCGAGACGAATCGGAGTCACCTAGTGCAG”, the binding signal was 42000 fluorescence intensity (a.u.).

As to “TAGAGATTGGTATAAGCATGGAATACATTTACACCACGGCCGGAGTCACCTAGTGCAG”, the binding signal is 6480 fluorescence intensity (a.u.).

Turning to “GTCTCAATCACCACGTGCTCTTCCATCCTCCATAAATACTCGGAGTCACCTAGTGCAG”, the binding signal is 7020 fluorescence intensity (a.u.).

On to “ATTGATTGCTGGACACCCGCGAGATTATTTTATTATATTTCGGAGTCACCTAGTGCAG”, for which the binding signal is 28800 fluorescence intensity (a.u.).

In the case of “CAATTAATTATACGTTAATGGCTCAGCTCGTTTTGCGTACCGGAGTCACCTAGTGCAG”, the binding signal is 40100 fluorescence intensity (a.u.).

On to “CTAAAATTGAAAGTTTGGTTGAAATTGAAGCGATGTGACGCGGAGTCACCTAGTGCAG”, for which the binding signal is 16400 fluorescence intensity (a.u.).

Turning to “GTTAATAAATCTAGACAGATATAACATCAATATAAATGTGCGGAGTCACCTAGTGCAG”, the binding signal is 5810 fluorescence intensity (a.u.).

As to “TCCTAATTGTACAATTAATTAAATTAAGTACAGTCCTATGCGGAGTCACCTAGTGCAG”, the binding signal is 53000 fluorescence intensity (a.u.).

With “GATCAATCTATGATCTCTAATTTTGGTAGCCTGGCTTGGACGGAGTCACCTAGTGCAG”, the binding signal was 25500 fluorescence intensity (a.u.).

As to “TTACACTATAATTACAGTGTAATTACATGCAAGTTACAGTCGGAGTCACCTAGTGCAG”, the binding signal was 18000 fluorescence intensity (a.u.).

For the sequence “TGGAGGGAGTAATTAACTGTTGTTTGTTTGTCAGCTTCTACGGAGTCACCTAGTGCAG”, the binding signal is 3490 fluorescence intensity (a.u.).

In the case of “TTATGATATATTGATCGTAGGATTGGGATTGGGATCCTATCGGAGTCACCTAGTGCAG”, the binding signal is 15800 fluorescence intensity (a.u.).

Consider “TCGCATCGTTCCAATTTCAATCAAACTTTCAATTTTGGCGCGGAGTCACCTAGTGCAG”, for which the binding signal is 10600 fluorescence intensity (a.u.).

As for “CTAGATAGATATATATGTTTAGATTCATTAACATCGATATCGGAGTCACCTAGTGCAG”, the binding signal was 6440 fluorescence intensity (a.u.).

For the sequence “CCACTAATTAGAGTGGCAGCAACAAATAACATTTCTCCTGCGGAGTCACCTAGTGCAG”, the binding signal was 39300 fluorescence intensity (a.u.).

Consider “AGCTCCAATTTAATTTCAAAATGAATTTATATATTCATTGCGGAGTCACCTAGTGCAG”, for which the binding signal was 18500 fluorescence intensity (a.u.).

For the sequence “ATTTAATTACAATGAATTCATTAGTGAAATTGGATCATGGCGGAGTCACCTAGTGCAG”, the binding signal is 30700 fluorescence intensity (a.u.).

On to “CTCAATTTCCACACCTGTCAATTTCCTCCGTGTAATACACCGGAGTCACCTAGTGCAG”, for which the binding signal was 7270 fluorescence intensity (a.u.).

In the case of “ATTAAGTATGTGATTAGTGGCAACAGCCCGCCCATTATGACGGAGTCACCTAGTGCAG”, the binding signal was 9690 fluorescence intensity (a.u.).
